Laboratory results: the supplement of paper PMC11417369
± gives the standard deviation of the averaged measurements. Some of the results follow.

Test system: PfAP2-LT AP2 domain (GST-tagged)
Test: gcPBM binding intensity (ln(normalized median fluorescence intensity)); higher = stronger DNA binding
How it was run: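 Probes on an Agilent 4 × 180k array were primer-extended, double-stranded and 36 bp long, taken from intergenic genomic regions, with negative controls added. GST-tagged P. falciparum DNA-binding domains from E. coli, about 25 μg on average, were applied to the array for 1 h in 1× PBS containing 1% milk, 0.2 mg/ml BSA, 0.5% salmon testes DNA and 0.03% Triton X-100. Binding intensity, obtained after Alexa488 anti-GST antibody detection and a 488 nm scan, is the highest Masliner-normalised natural-log median intensity across replicate spots of either probe orientation.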

Sequence	gcPBM binding intensity (ln)
AATATAAAAATGTTTACACACACACGGAAATATATT [CACACA_site7226]	9.46 ± 0.3
ATGTTGTACAAACACACACACAAAAAAAAAATAAAA [CACACA_site2406]	9.6 ± 0.27
TAAAATTAATAAAATATTTTCACTTAATATATATAA [CACACA_negctrl_site1550]	8.23 ± 0.52
ATATATATATGTGGATGTACATATATCTCTTATTAT [XGTACX_site1748]	9.05 ± 0.42
AATTATTAAATATGTACACACGTACATTTTATAAAT [CACACA_site5341]	8.8 ± 0.4
AGTACATTATAGAATACACACCTATATATATATATA [CACACA_site4447]	9.68 ± 0.2
TATTTTGTTCTTTCCACACACAAATACATATATTGT [CACACA_site4071]	9.37 ± 0.5
TAATACATACACACATGTACATACAGAAATAAATAA [XGTACX_site3245]	9.24 ± 0.38
AAAAAGAAGAAGAAATGTACGTAACTATATATTTAT [XGTACX_site4362]	8.87 ± 0.47
TTTTACATAAATTATAAATATATAAAATAAAAAAAA [CACACA_negctrl_site1499]	8.24 ± 0.55
TTAATGGAAAAATAGGCACACACACCGATATACATA [CACACA_site8356]	9.64 ± 0.26
TGGCTTTCCCTGCCGGTGCATTAACATTTTTTACAT [GTGCAC_site9914]	8.97 ± 0.42
TTAATATTCCAGCTTTGTACATATATATATTATAAA [XGTACX_site7954]	8.62 ± 0.38
CATATATATATTTTTTGTACATATATTTTTACATAT [XGTACX_site8419]	9.04 ± 0.5
TTTATACAAATATGTACACACTAAATATATATTATG [CACACA_site4413]	8.8 ± 0.41
AAAAAAAAAAAAAACACACAGAAATATATATATATT [CACACA_site832]	8.9 ± 0.5
AAAGGAAAAGTTGACTGTACATAAGTAAAAAATAAT [XGTACX_site788]	9.15 ± 0.72
ATTCATTCCATACTTTAACACACAAATATATTTAAT [CACACA_site7930]	8.83 ± 0.47
ATGTTATTAATAATTGCACACATTTTTTTTTTTTTT [CACACA_site3920]	9.1 ± 0.38
TCATATTTATATAAATGTACTTAATTGGTTTCTTTA [XGTACX_site7848]	8.59 ± 0.49
AGATTGTAAGTAAACACACACACATATATATGTATA [CACACA_site675]	9.62 ± 0.35
TTTTTGTAACCGATTCTGCACTGAGAAGCACATATA	8.62 ± 0.46

Sequence	gcPBM binding intensity (ln)
GAAATTACTTTATAAACACACATTTATTTTATTTTA [CACACA_site7007]	8.63 ± 0.47
TTATTTACAAAACAAATCAAAATATCCAAAAGAATA [CACACA_negctrl_site1789]	8.33 ± 0.44
ATATTATACGCATATGTGCGCATACATTTTTTTGCA [GTGCAC_site9540]	8.99 ± 0.44
TACACATACAGACATACACACATACCCATATACTCA [CACACA_site5037]	9.6 ± 0.41
GGCATATATATATGCACACATACATATATACATGTG [CACACA_site3859]	9.7 ± 0.3
AAAAAAATAAAATATATATATATATATATATATATA [GTGCAC_negctrl_site706]	9.54 ± 0.4
TATATATGGATATATACACACAACGGTTATAAATAT [CACACA_site6655]	9.02 ± 0.44
TTTTTTAAAGTTTAAAGTACATATAAAAATATATAA [XGTACX_site5267]	8.18 ± 0.57
AATATAGGAATATGCACACATATATACATACATACA [CACACA_site1521]	9.3 ± 0.4
TATATATATATATTATGTACATATATAAATTAACAT [XGTACX_site3368]	8.8 ± 0.33
CTTAAAATATATTTAGTGCATATACTAATATATTAT	8.54 ± 0.39
TATGAAAAAAAAAAAAAAAAAAAAAAAAAAAAAAAA [XGTACX_negctrl_site587]	8.02 ± 0.15
ATATATATATATTTATGTACATATTATTTATTCTTT [XGTACX_site6567]	9.05 ± 0.52
TAATGGTATAAAAAATGTACATGTTTTTTTACAATT [XGTACX_site4285]	8.65 ± 0.41
ATTATTTGATTAAAGGTGCAAGGATAATAATAAAAC	8.82 ± 0.42
TATATTTACTTATATGCACACATAAATGTGAATTAT [CACACA_site9258]	8.89 ± 0.36
TATTATATAATATACTGTACAATATCCATTATTTAC [XGTACX_site7091]	8.81 ± 0.41
ACATATAATAAAATAGTGCATTGTTAGTTTTATATA	8.68 ± 0.44
AATTAATAAAAAAGGTGTACAGTAAATGCAATAATC [XGTACX_site7956]	9.18 ± 0.39
GTTAATCACCATGTGGTGCATATAAGGGCATATTAT [GTGCAC_site9748]	8.85 ± 0.47
TCTTTTATATATAATAATTATATATAACATTCAAAC [GTGCAC_negctrl_site112]	8.53 ± 0.45
CCTTATACGATATTATGTACGCATATGTGCATTTTT [XGTACX_site1570]	8.95 ± 0.4
